The list shows a part of the results. Further columns of the screen follow, without active or inactive calls.
Key:
Test in all cases: Primary Screen for Target Class Profiling of Small Molecule Inhibitors of Methyltransferases
[1] = target: Glycine N-methyltransferase (Homo sapiens) (UniProt Q14749); details: purified enzyme, MTase-Glo SAH luminescence; measured here: GNMT inhibition; at 40 µM; stronger effect = lower value
How it was run: (§1)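 Each enzyme was assayed with SAM and its substrate. SAH formation detected by MTase-Glo luminescence; single-point 40 uM screen[…].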

[2] = target: Guanidinoacetate N-methyltransferase (Homo sapiens) (UniProt Q14353); details: purified enzyme, MTase-Glo SAH luminescence; measured here: GAMT inhibition; at 40 µM; stronger effect = lower value
How it was run: as §1

[3] = target: Histamine N-methyltransferase (Homo sapiens) (UniProt P50135); details: purified enzyme, MTase-Glo SAH luminescence; measured here: HNMT inhibition; at 40 µM; stronger effect = lower value
How it was run: as §1

[4] = target: Nicotinamide N-methyltransferase (Homo sapiens) (UniProt P40261); details: purified enzyme, MTase-Glo SAH luminescence; measured here: NNMT inhibition; at 40 µM; stronger effect = lower value
How it was run: as §1

[5] = target: Phenylethanolamine N-methyltransferase (Homo sapiens) (UniProt P11086); details: purified enzyme, MTase-Glo SAH luminescence; measured here: PNMT inhibition; at 40 µM; stronger effect = lower value
How it was run: as §1
% is scaled to controls: 0 for no effect and ±100 for the full control effect.

| SMILES | activity change, negative = inhibition [1] | activity change, negative = inhibition [2] | activity change, negative = inhibition [3] | activity change, negative = inhibition [4] | activity change, negative = inhibition [5] |
| --- | --- | --- | --- | --- | --- |
| COc1ccc(S(=O)(=O)N2CCC(Cc3nncn3C(C)C)CC2)cc1 | 5.24% | 0.419% | 13% | 7.55% | 9.63% |
| CC(C)Cc1cc(C(=O)N2CCOC(C(F)(F)F)C2)n[nH]1 (stereo not given) | 0.187% | 2.15% | 3.24% | -0.917% | -0.04% |
| CCc1nc2cc(N3CCCC(C(=O)O)C3)cnc2nc1CC (stereo not given) | -4.37% | -4.33% | -2.25% | -7.61% | -8.65% |
| CC(O)C/C=C/C=C/C(=O)OC1C=C2COC(=O)C2(O)C2(C)CCCC(C)(C)C12 (stereo not given) | 0% | 2.52% | 1.83% | -14.8% | 2.19% |
| Cc1ccccc1CNC(=O)c1cc2n(n1)CC(C)(C(=O)NCc1ccccc1)N(C)C2=O (stereo not given) | 1.12% | 0% | 2.17% | 3.12% | 0.367% |
| O=C(COC(=O)C(Cc1c[nH]c2ccccc12)NC(=O)c1ccco1)c1ccccc1 (stereo not given) | -1.95% | 3.09% | 2.58% | -1.25% | 2.46% |
| CCc1cc(C(=O)N2CCC3(CCC(=O)N(CCc4cnc[nH]4)C3)CC2)cs1 | -3% | -6.83% | -2% | -7.85% | -6.61% |
| CCC[C@@H]1C[C@@H](C(=O)N[C@@H]([C@H]2O[C@H](SC)[C@H](O)[C@@H](O)[C@@H]2O)[C@@H](C)O)N(C)C1 | 2.5% | – | 6.31% | – | – |
| C=C1C(=O)O[C@@H]2[C@H]1CC[C@H](C)C(CCC(=O)O)C2(C)O (stereo not given in full) | 0% | 2.69% | 9.67% | -6.54% | 4.82% |
| Cc1ccc(CNC(=O)C2(C)Cn3nc(C(=O)N4CCOCC4)cc3C(=O)N2C)cc1 (stereo not given) | 4.56% | 3.42% | 6.26% | 0.506% | 1.63% |
| Cc1cccc(NC(=O)CN(C)S(=O)(=O)c2ccc3[nH]c4c(c3c2)CCCC4)c1 | 2.18% | 0% | -0.956% | -2.84% | 0.537% |
| N#Cc1cccc(C(=O)N2CCNc3cnc(Nc4cccc(F)c4)nc3C2)c1 | -11.2% | -7.11% | -8.33% | -19.5% | -11.2% |
| CC[N+](CC)(CC)CC(=O)Nc1c(C)cccc1C | 2.81% | 11.6% | 6.47% | -1.02% | 11.4% |
| Cc1ccc(-c2n[nH]n3c2nc(=O)c2ccc(C(=O)NCc4ccc(Cl)cc4)cc23)cc1 | -3.41% | 0% | -0.181% | 0.632% | -1.4% |
| O=C(Cc1c(F)cccc1F)Nc1cc(OCc2ccc(Cl)cc2)ccn1 | 3.73% | -2.18% | -3.49% | -17.4% | 3.54% |
| CN1C(=O)c2cc(C(=O)Nc3cccc(F)c3)nn2CC1(C)C(=O)NC1CCCCCC1 (stereo not given) | -2.99% | 3.63% | 5% | -1.36% | 0.388% |
| CC(=O)Nc1ccc(C(=O)N2CCC3(CC2)CN(C)CCN3C)c(C)c1 | 2.64% | 1.8% | 0.683% | -5.32% | 5.22% |
| Cc1noc(C)c1S(=O)(=O)N1C[C@@H](C(=O)O)[C@H](c2ccccn2)C1 | -4.33% | -6.85% | -1.75% | -6.63% | 3.03% |
| CCOC(=O)c1cc2n(n1)CC(C)(C(=O)NCc1ccc(C)cc1)N(CCCc1ccccc1)C2=O (stereo not given) | 7.86% | 2.33% | 10.4% | 2.91% | 3.77% |
| CCCn1c(=O)c2ccc(Cl)cc2n2c(=O)n(Cc3cccc(C)c3)nc12 | -2.23% | 2.44% | 3.12% | -1.78% | 0.977% |

| SMILES | activity change, negative = inhibition [1] | activity change, negative = inhibition [2] | activity change, negative = inhibition [3] | activity change, negative = inhibition [4] | activity change, negative = inhibition [5] |
| --- | --- | --- | --- | --- | --- |
| C[C@H]1[C@H](C)CC[C@]2(C(=O)O)CC[C@]3(C)C(=CC[C@@H]4[C@@]5(C)C[C@@H](O)[C@H](O)[C@@](C)(CO)[C@@H]5CC[C@]43C)[C@H]12 | -1.39% | 3.65% | 8.68% | -6.51% | 4.41% |
| CC(CCc1ccccn1)(CCc1ccccn1)C(=O)c1ccccc1 | – | 7.43% | – | -6.04% | -0.114% |
| COC(=O)c1cc2n(n1)CC(C)(C(=O)NC1CCCCCC1)N(Cc1ccccc1OC)C2=O (stereo not given) | -6.97% | -1.31% | -9.35% | -15.2% | -2.64% |
| Cc1ccc(N2C(=O)c3ccc(-c4ccco4)n3CC2(C)C(=O)NCc2ccc(Cl)cc2)c(C)c1 (stereo not given) | -1.75% | 2.35% | 1.22% | 4.3% | -1.61% |
| CCCn1c(=O)c2ccc(C(=O)NC(C)C)cc2n2c(=O)n(CC(=O)Nc3cccc(C)c3)nc12 | 5.63% | 3.71% | 1.59% | 0.67% | 2.48% |
| COc1cccc(CCC(=O)N2CCC3(CC2)NC(=O)N(c2cccc(F)c2)N3)c1 | -4.37% | -2.18% | -1.29% | -5.56% | 2.7% |
| CC1CCN(S(=O)(=O)c2ccc3c(ccn3CCC(=O)NCCc3cccs3)c2)CC1 | -2.26% | -0.884% | -2.69% | -7.73% | -5.36% |
| CC1CCC/C=C/C(=O)c2c(O)cc(O)cc2CC(=O)O1 (stereo not given) | -1.44% | -5.43% | 6.19% | -9.72% | -5.57% |
| Cc1ccc(NC(=O)Cn2nc3n(C)c(=O)c4ccc(C(=O)NC5CCCC5)cc4n3c2=O)cc1F | -0.099% | 0% | 0.238% | 0.875% | 0.275% |
| COc1ccc(CN2CCn3c(nnc3C3CCCNC3)C2)cc1 (stereo not given) | -7.54% | -8.75% | -4.61% | -13.6% | -8.27% |
| CCC(C)NC(=O)c1ccc2c(=O)nc3c(-c4cccc(F)c4)n[nH]n3c2c1 (stereo not given) | 1.33% | 1.91% | 2.91% | 2.89% | 0.008% |
| CC1(C(=O)NCc2ccccc2)Cn2c(cc3ccccc32)C(=O)N1Cc1ccccc1Cl (stereo not given) | 2.92% | 0.601% | 3.6% | 1.81% | -3.23% |
| c1ccc(C2(c3ccccc3)CCCN(Cc3cscn3)C2)cc1 | -5.46% | -5.59% | -4.1% | -8.89% | -0.834% |
| CC(C)OCCCn1c(=O)c2ccccc2n2c(=O)n(Cc3cccc(Cl)c3)nc12 | -1.67% | 0% | 8.34% | -26.9% | 0.533% |
| O=C1CN(Cc2ccc(Br)cc2)S(=O)(=O)c2ccccc2N1Cc1ccccc1F | 6.2% | 5.9% | 0.861% | 0.62% | -0.33% |
| COc1ccccc1CCNC(=O)Cn1ccc2cc(S(=O)(=O)N3CCCCC3)ccc21 | 5.3% | 0% | 3.33% | 8.03% | 5.42% |
| O=S(=O)(NCCn1c(-c2ccncc2)nc2ccccc21)c1ccc(Cl)cc1 | -5.23% | 0% | 3.2% | -1.09% | 4.4% |
| CCCc1nc(CC)n2cc[nH]c(=O)c12 | -4.09% | -2.44% | -3.11% | -11.1% | 13.1% |
| CCn1ccc(C(=O)N2C[C@@H]3CCCN4CCC[C@@H]([C@H]34)[C@H]2CCCC(=O)NCC2CC2)n1 | -7.69% | -13.2% | -4.77% | -19% | -11.1% |

From PubChem BioAssay AID1745853 (National Center for Advancing Translational Sciences (NCATS), 2022)
